# Laboratory results as given in PubChem BioAssay (NCATS).
# This list was built around the results that the source calls inconclusive (neither active nor inactive); the mix of calls is not that of the screen. Where the call is inconclusive, the potency comes from a doubtful curve fit. The source made the active and inactive calls. Calls come from the whole dose curve; as a rule, active = well fitted inhibition curve with a large enough effect; inconclusive = small, poorly fitted or top-dose-only effect; inactive = no such curve, though single readings can be large or run the other way.
# Target: Retinaldehyde dehydrogenase 3 (Homo sapiens) (UniProt P47895)
# Test: qHTS for Inhibitors of the Aldehyde Dehydrogenase Family (ALDH1A3) Primary screen (AID 2061315);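 for activity change, negative = inhibition: plate controls were DMSO vehicle for no effect and reference inhibitor for full effect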
# Conditions: ALDH inhibition qHTS; activity change, negative = inhibition: at 56 µM (top of the series) unless noted
# Potency is the fitted concentration of half-maximal effect; tags give direction and shape of the fitted curve.
Structure (SMILES),"activity change, negative = inhibition",Potency
COc1ccc(OC)c(C2=Nn3c(nnc3-c3ccccc3C)SC2)c1,inactive: 7.18%,–
Cc1nnc(-c2cnn(C)c2N)n1CCCc1ccncc1,–,"inconclusive: 0.447 µM [inhibitor, full curve, poor fit]"
C=CC1(C)CC(OC(=O)C(=C)C(O)COC(C)=O)C(C(=C)C(=O)OC)C(O)C1C(=C)CO (stereo not given),inactive: -5.24% [at 28 µM],–
CC/C=C\CCO[C@@H]1O[C@H](CO[C@@H]2OC[C@H](O)[C@H](O)[C@H]2O)[C@@H](O)[C@H](O)[C@H]1O,–,"inconclusive: 12.6 µM [inhibitor, partial curve, poor fit]"
Cc1ccnc(NC(=S)N2CCc3cccc(C(F)(F)F)c3C2)c1,–,"inconclusive: 3.55 µM [inhibitor, partial curve]"
COc1cc(-c2ccc3ncnc(NCc4ccc(C)o4)c3c2)cc(OC)c1OC,inactive: 1.5%,–
C[C@@H]1O[C@@H](O[C@H]2[C@H](OC(=O)[C@]34CCC(C)(C)C[C@H]3C3=CCC5[C@@]6(C)CC[C@H](O[C@@H]7O[C@H](CO[C@@H]8OC[C@H](O)[C@H](O)[C@H]8O)[C@@H](O)[C@H](O)[C@H]7O)C(C)(C)C6CC[C@@]5(C)[C@]3(C)C[C@H]4O)OC[C@@H](O)[C@@H]2O)[C@H](O)[C@H](O)[C@H]1O[C@@H]1OC[C@H](O)[C@H](O[C@@H]2OC[C@@H](O)[C@H](O)[C@H]2O)[C@H]1O (stereo not given in full),inactive: 8.01% [at 11.2 µM],–
Cc1ccc(S(=O)(=O)NC(N)=NCCC[C@@H](N)C(=O)Nc2cc(C(F)(F)F)ccc2Cl)cc1,inactive: 24.6%,–
C=C1CC23CCC4[C@@](C)(CCC[C@@]4(C)C(=O)O)C2CCC1C3 (stereo not given in full),inactive: -5.07%,–
C[C@@H]1O[C@@H](O[C@H]2[C@H](O[C@H]3[C@H](O[C@H]4CC[C@@]5(C=O)C(CC[C@]6(C)C5CC=C5C7CC(C)(C)C[C@@H](O)[C@]7(C)CC[C@]56C)C4(C)C)O[C@H](C(=O)O)[C@@H](O)[C@@H]3O)OC[C@@H](O)[C@@H]2O)[C@H](O)[C@H](O)[C@H]1O (stereo not given in full),inactive: 3.52% [at 16.9 µM],–
